Each structure is given as a SMILES string. The campaign covered roughly 310,000 compounds. About 2,200 (0.71%) showed an effect of 50% or more. Effects have a minus sign here. The list shows a part of the results. Where a SMILES comes first, the peptide text is derived from it.

Consider 45 molecules from PMC4336329 (PLoS ONE, 2015).

For the assay, the target named is human ether-à-go-go-related gene (hERG) potassium channel (human, UniProt Q12809). In words: primary screen, population patch clamp on CHO cells stably expressing hERG.
Chain of human ether-à-go-go-related gene (hERG) potassium channel (Q12809 whole entry, looked up): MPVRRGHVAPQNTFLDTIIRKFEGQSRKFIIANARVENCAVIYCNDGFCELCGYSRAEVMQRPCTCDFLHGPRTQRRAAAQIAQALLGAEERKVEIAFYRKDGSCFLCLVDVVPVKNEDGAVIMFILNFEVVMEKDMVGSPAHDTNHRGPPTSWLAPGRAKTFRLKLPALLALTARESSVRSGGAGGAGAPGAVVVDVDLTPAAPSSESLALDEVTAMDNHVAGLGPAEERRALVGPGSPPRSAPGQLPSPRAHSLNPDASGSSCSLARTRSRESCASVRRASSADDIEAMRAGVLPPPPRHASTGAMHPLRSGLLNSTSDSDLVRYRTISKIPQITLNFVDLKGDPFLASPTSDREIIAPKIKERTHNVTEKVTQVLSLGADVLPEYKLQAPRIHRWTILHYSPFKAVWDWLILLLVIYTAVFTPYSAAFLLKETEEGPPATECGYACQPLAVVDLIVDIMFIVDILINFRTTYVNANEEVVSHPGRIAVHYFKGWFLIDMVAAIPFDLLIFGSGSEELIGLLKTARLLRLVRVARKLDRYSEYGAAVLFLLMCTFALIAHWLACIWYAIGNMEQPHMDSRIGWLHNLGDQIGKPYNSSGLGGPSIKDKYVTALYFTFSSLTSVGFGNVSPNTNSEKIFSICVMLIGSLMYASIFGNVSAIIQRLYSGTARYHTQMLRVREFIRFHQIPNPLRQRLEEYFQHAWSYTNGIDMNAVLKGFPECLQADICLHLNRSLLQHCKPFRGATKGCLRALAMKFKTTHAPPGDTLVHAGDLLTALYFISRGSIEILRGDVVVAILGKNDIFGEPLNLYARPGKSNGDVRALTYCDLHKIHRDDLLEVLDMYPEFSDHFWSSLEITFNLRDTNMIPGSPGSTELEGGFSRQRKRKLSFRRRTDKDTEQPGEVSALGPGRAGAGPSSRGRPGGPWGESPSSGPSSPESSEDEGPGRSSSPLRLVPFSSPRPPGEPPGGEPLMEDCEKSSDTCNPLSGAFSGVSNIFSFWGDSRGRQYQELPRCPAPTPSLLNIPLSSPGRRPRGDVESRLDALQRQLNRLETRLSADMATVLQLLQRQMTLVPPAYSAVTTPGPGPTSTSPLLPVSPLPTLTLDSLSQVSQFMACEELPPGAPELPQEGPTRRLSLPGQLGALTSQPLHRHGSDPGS
In the case of `CC1CCc2c(sc(/N=C/c3ccco3)c2C(N)=O)C1` (stereo not drawn), the “hERG current change (%, negative = inhibition) at 1uM” value is listed as 10.5%. For `COc1ccc(Oc2ccc(/C=C/C(=O)c3ccc(O)cc3)cc2[N+](=O)[O-])cc1`, the “hERG current change (%, negative = inhibition) at 1uM” value is recorded as 9.3%.

Turning to `CC(=O)CCc1c(C)nc2ccc(C)cc2c1Cl`, the “hERG current change (%, negative = inhibition) at 1uM” value is recorded as 4.06%. Consider `CCCOc1cccc(C(=O)NCCNC(=O)c2ccc(C)nc2)c1`, for which the “hERG current change (%, negative = inhibition) at 1uM” value was 7.83%. As to `CCCCN1C(=O)C(=O)N(CC(=O)Nc2cc(Cl)ccc2OC)C1=O`, the “hERG current change (%, negative = inhibition) at 1uM” value is 2.33%. As for `CC1CCC(NS(=O)(=O)c2ccc(Cl)nc2)CC1` (stereo not drawn), the figure is -13.1%; as for `O=C(/C=C/c1cccc([N+](=O)[O-])c1)Nc1ccccc1N1CCOCC1`, -4.79%; as for `COc1ccc(N=Cc2c(O)n(-c3ccc(OC)cc3)c(=O)c3ccccc23)cc1`, 24.2%. With `COc1ccc(NC(=O)Cn2cccc2)c(OC)c1`, the “hERG current change (%, negative = inhibition) at 1uM” value is given as -2.8%. Regarding `CCCCCCSc1cc(-c2nc3cc(C)ccn3c2NCCCC)ccc1OC.O=C(O)C(F)(F)F`, the “hERG current change (%, negative = inhibition) at 1uM” value is given as 5.08%. As for `CCOC(=O)CC1=C(C(=O)OCC)C(c2cccnc2)C(C#N)=C(N)O1` (stereo not drawn), the figure is 10.8%.

Turning to `Cc1cccc(N2CCN(C(=O)C3CCC(CNS(=O)(=O)c4cccs4)CC3)CC2)c1C` (stereo not drawn), the “hERG current change (%, negative = inhibition) at 1uM” value came out at 8.6%. Next, `CC(C)(O)C(=O)NNC(=S)NCc1ccco1`: -1.35%. Take `CCOC(=O)C(CC)n1nc(C)n2c(cc3sccc32)c1=O` (stereo not drawn): the “hERG current change (%, negative = inhibition) at 1uM” value worked out at 1.07%. As for `C/C(=N\NC(=S)Nc1ccc(C)c(C)c1)c1ccc(N2CCOCC2)cc1`, the “hERG current change (%, negative = inhibition) at 1uM” value is listed as 13.8%. Next, `O=C(c1ccco1)N1CCN(Cc2cc(=O)c(OCc3ccccc3Cl)co2)CC1`: -1.87%. As for `CC(C)CN(C)C(=O)CCc1nnc(Cc2ccc(-c3ccccc3)cc2)o1`, the figure is 6.96%. Next, `COC(=O)[C@]1(C)N[C@H](c2ccc(-c3ccc(Cl)c(Cl)c3)c(OC)c2)[C@@H]2C(=O)N(C)C(=O)[C@@H]21.O=C(O)C(F)(F)F`: 1.78%; `CCNC(=O)/C(C#N)=C/c1c(N2CCN(Cc3ccc4c(c3)OCO4)CC2)nc2c(C)cccn2c1=O`: 2.78%. Take `Cc1csc2c(NCCCN3CCOCC3)ncnc12`: the “hERG current change (%, negative = inhibition) at 1uM” value is given as 12.8%. On to `COc1ccc2sc(NC(=O)c3ccco3)nc2c1`, for which the “hERG current change (%, negative = inhibition) at 1uM” value was found to be 8.24%. As to `Cc1ccc(C)c(C(=O)COC(=O)c2ccc(Br)o2)c1`, the “hERG current change (%, negative = inhibition) at 1uM” value turned out to be 12.2%.

On to `Cc1ccc(N(CC(=O)NCc2ccco2)C(=O)CCC(=O)Nc2nccs2)cc1C`, for which the “hERG current change (%, negative = inhibition) at 1uM” value worked out at 13%.

Turning to `CCCCCN(C(=O)CCC(=O)OCCOc1ccccc1)c1c(N)n(CCCC)c(=O)[nH]c1=O`, the “hERG current change (%, negative = inhibition) at 1uM” value was found to be 17.8%. For the molecule `Cc1ccc(OCCOC(=O)C2CCN(S(=O)(=O)c3ccc(C)c(C)c3)CC2)cc1`, the “hERG current change (%, negative = inhibition) at 1uM” value is 4.73%. As for `CCOC(=O)C1CCN(C(=O)C2(NC(=O)NC3CCCCC3)CCCCC2)CC1`, the figure is 16.4%. As for `Cc1noc(/C=C/N(C)C)c1S(=O)(=O)NC1CCCCC1`, the “hERG current change (%, negative = inhibition) at 1uM” value is on record as 6.29%. For `CC(C)(C)OC(=O)N1CCC[C@H]1c1nnc(SCc2c(Cl)cccc2Cl)o1`, the “hERG current change (%, negative = inhibition) at 1uM” value was -6.71%. `O=C(C1CCN(CC2CC=CCC2)CC1)N(CCc1ccccc1)Cc1ccccc1` (stereo not drawn): the “hERG current change (%, negative = inhibition) at 1uM” value is -47%.

On to `CC(C)C[C@H](NC(=O)[C@@H]1CCCN1C(=O)[C@@H](N)Cc1ccc(O)cc1)C(=O)NCC(N)=O` (H-YPLG-NH2), for which the “hERG current change (%, negative = inhibition) at 1uM” value was found to be 20.7%. For `CCNC(=O)c1ccccc1SCc1ccccc1`, the “hERG current change (%, negative = inhibition) at 1uM” value is on record as -2.71%.

Take `CC(c1ccccc1)N1C(=O)c2ccccc2C1(O)Cc1ccccc1` (stereo not drawn): the “hERG current change (%, negative = inhibition) at 1uM” value stood at 13.6%. As to `Cc1ccc(N=C2CCCN2Cc2ccccc2)c(C#N)c1`, the “hERG current change (%, negative = inhibition) at 1uM” value was -1.54%.

In the case of `Cc1c(C(=O)Nc2cccc(N(C)S(C)(=O)=O)c2)cccc1[N+](=O)[O-]`, the “hERG current change (%, negative = inhibition) at 1uM” value was found to be 7.37%.

`Cc1ccc(N=Nc2c(O)ccc3n[nH]nc23)cc1`: the “hERG current change (%, negative = inhibition) at 1uM” value was found to be 10.6%. As to `COC(=O)c1ccccc1NC(=O)c1sc(=S)n(C)c1N`, the “hERG current change (%, negative = inhibition) at 1uM” value is 12.2%.

On to `CCOc1ccccc1C(=O)NCC(=O)NCCCc1ccccc1`, for which the “hERG current change (%, negative = inhibition) at 1uM” value stood at 1.47%. As for `CCOC(=O)c1ccc(NC(=O)c2cccc(C)c2[N+](=O)[O-])cc1`, the figure is 14.4%; as for `O=C(NN1CC(=O)N(c2cc(Cl)cc(Cl)c2)CC1=O)c1cccs1`, 10.6%; as for `Cc1c(C(=O)N2CCCC2)c(S(=O)(=O)Nc2ccccc2Cl)c(C)n1C`, 12.2%. For `CN1C(=O)C(C(=O)NC(C)(C)C)C2c3ccccc3OC13CCCCC23` (stereo not drawn), the “hERG current change (%, negative = inhibition) at 1uM” value is -4.43%. As for `COCc1cc(=O)[nH]c(/N=C(\N)Nc2ccccc2C)n1`, the “hERG current change (%, negative = inhibition) at 1uM” value amounted to 5.07%.

Regarding `Cc1[nH]c2c(C)cccc2c(=O)c1Br`, the “hERG current change (%, negative = inhibition) at 1uM” value is reported as 9.54%. Consider `Cc1ccc(C(=O)CSc2nnnn2-c2ccccc2)o1`, for which the “hERG current change (%, negative = inhibition) at 1uM” value was determined as 9.14%. As to `CC(C)Cn1c(=O)oc2ccccc21`, the “hERG current change (%, negative = inhibition) at 1uM” value worked out at 13.5%.
